In patent US8280710B2, “Method for determining thermal stability of collagen or collagen-like peptide” (University of Medicine and Dentistry of New Jersey, priority 2005, dated 2012):
Not every detail of the peptide structures is certain; ends, links or a residue may be inferred. Non-standard residues stand in square brackets, D forms with d. Residues, ends and D or L forms follow the SMILES beside them. Hyp = O=C(O)[C@@H]1C[C@@H](O)CN1

Experiments:
[1] = Method for predicting global Tm of collagen peptides from amino acid sequence; settings: observed minus predicted, peptides of Table 3
Procedure: The global thermal stability of homotrimeric triple helical peptides with length of at least 6 tripeptide units and, in most cases, containing 10 tripeptide units was determined as follows.
For the total number of triplets n in a given peptide, the base Tm^0(n) for (Pro-Hyp-Gly) or (Pro-Pro-Gly)n was calculated from the length dependence (Equation 1), including any effect of blocking groups;
The melting temperature value was decreased for every triplet in the sequence that was not Gly-Pro-Hyp, subtracting a value of ΔTm^GXY (Table 1). The N-terminal and C-terminal tripeptide units were excluded from the calculation due to the staggering of the chains and the disorder for the peptide ends (Bella et al. (1994) supra; Li, et al. (1993) Biochemistry 32:7377-7387; Kramer, et al. (2001) J. Mol. Biol. 301:1191-1205).
The resulting value for the peptide melting temperature was adjusted using the ΔTm^int values for interactions between neighboring tripeptides (Table 2).
The method was formulated as follows.
To extrapolate the dependence of the Tm of the host peptides on peptide length, the experimental values for (Pro-Hyp-Gly)n and (Pro-Pro-Gly)n versus n, where n is the number of tripeptide units, were fit to the exponential decay function
[formula] where Tm^0(n) is defined as the base thermal stability of the repeating polytripeptide standard, Tm^max is the maximum melting temperature, and the constant n0 represents the length of the repeating peptide with Tm=0.

[2] = peptide of Table 3, defined standard conditions
Procedure: The propensity measurements for all 20 amino acid residues in the Xaa1 position in a Gly-Xaa1-Hyp context and all 20 amino acid residues in the Xaa2 position in a Gly-Pro-Xaa2 context were determined by measuring thermal stability of host-guest peptides (Persikov, et al. (2000) supra).
The Tm values of all host-guest peptides were measured under a set of standard conditions, with c=1 mg/ml in phosphate-buffered saline, pH 7.0, and with a heating rate average of 0.1° C./minute (Persikov, et al. (2004) supra).

| Structure (SMILES) | ΔTm [1] [°C] | Tm^obs [2] [°C] |
| --- | --- | --- |
| CC(C)[C@H](NC(=O)CNC(=O)[C@@H]1C[C@@H](O)CN1C(=O)[C@H](CCCNC(=N)N)NC(=O)CNC(=O)[C@H](CCCCN)NC(=O)[C@H](CCCNC(=N)N)NC(=O)CNC(=O)[C@@H]1C[C@@H](O)CN1C(=O)[C@H](CCCNC(=N)N)NC(=O)CNC(=O)[C@@H]1C[C@@H](O)CN1C(=O)[C@@H]1CCCN1)C(=O)N[C@@H](CCCNC(=N)N)C(=O)NCC(=O)N1CCC[C@H]1C(=O)N[C@@H](CCCNC(=N)N)C(=O)NCC(=O)N1CCC[C@H]1C(=O)N1C[C@H](O)C[C@H]1C(=O)NCC(=O)N1CCC[C@H]1C(=O)N1C[C@H](O)C[C@H]1C(=O)NCC(=O)N1CCC[C@H]1C(=O)N1C[C@H](O)C[C@H]1C(=O)NCC(=O)N1CCC[C@H]1C(=O)N1C[C@H](O)C[C@H]1C(=O)NCC(N)=O [AchE-146 (t), PO-GRO-GRK-GRO-GVR-GPR-(GPO)4-G-NH2] | −3.0 | 15.5 |
| CC(C)[C@H](NC(=O)CNC(=O)[C@@H]1C[C@@H](O)CN1C(=O)[C@H](CCCCN)NC(=O)CNC(=O)[C@H](CCCNC(=N)N)NC(=O)[C@H](CCCCN)NC(=O)CNC(=O)[C@@H]1C[C@@H](O)CN1C(=O)[C@H](CCCNC(=N)N)NC(=O)CNC(=O)[C@@H]1C[C@@H](O)CN1C(=O)[C@@H]1CCCN1)C(=O)N[C@@H](CCCNC(=N)N)C(=O)NCC(=O)N1CCC[C@H]1C(=O)N[C@@H](CCCNC(=N)N)C(=O)NCC(=O)N1CCC[C@H]1C(=O)N1C[C@H](O)C[C@H]1C(=O)NCC(=O)N1CCC[C@H]1C(=O)N1C[C@H](O)C[C@H]1C(=O)NCC(=O)N1CCC[C@H]1C(=O)N1C[C@H](O)C[C@H]1C(=O)NCC(=O)N1CCC[C@H]1C(=O)N1C[C@H](O)C[C@H]1C(=O)NCC(N)=O [AchE-146/241, PO-GRO-GKR-GKO-GVR-GPR-(GPO)4-G-NH2] | −9.3 | 19.7 |
| CC(C)[C@H](NC(=O)CNC(=O)[C@@H]1C[C@@H](O)CN1C(=O)[C@H](C)NC(=O)CNC(=O)[C@H](C)NC(=O)[C@H](C)NC(=O)CNC(=O)[C@@H]1C[C@@H](O)CN1C(=O)[C@H](CCCNC(=N)N)NC(=O)CNC(=O)[C@@H]1C[C@@H](O)CN1C(=O)[C@@H]1CCCN1)C(=O)N[C@@H](CCCNC(=N)N)C(=O)NCC(=O)N1CCC[C@H]1C(=O)N[C@@H](CCCNC(=N)N)C(=O)NCC(=O)N1CCC[C@H]1C(=O)N1C[C@H](O)C[C@H]1C(=O)NCC(=O)N1CCC[C@H]1C(=O)N1C[C@H](O)C[C@H]1C(=O)NCC(=O)N1CCC[C@H]1C(=O)N1C[C@H](O)C[C@H]1C(=O)NCC(=O)N1CCC[C@H]1C(=O)N1C[C@H](O)C[C@H]1C(=O)NCC(N)=O [AchE-146A (t), PO-GRO-GAA-GAO-GVR-GPR-(GPO)4-G-NH2] | −4.4 | 18.6 |
| CC(C)[C@H](NC(=O)CNC(=O)[C@@H]1C[C@@H](O)CN1C(=O)[C@H](CCCNC(=N)N)NC(=O)CNC(=O)[C@H](CCCCN)NC(=O)[C@H](CCCNC(=N)N)NC(=O)CNC(=O)[C@@H]1C[C@@H](O)CN1C(=O)[C@H](C)NC(=O)CNC(=O)[C@@H]1C[C@@H](O)CN1C(=O)[C@@H]1CCCN1)C(=O)N[C@@H](C)C(=O)NCC(=O)N1CCC[C@H]1C(=O)N[C@@H](C)C(=O)NCC(=O)N1CCC[C@H]1C(=O)N1C[C@H](O)C[C@H]1C(=O)NCC(=O)N1CCC[C@H]1C(=O)N1C[C@H](O)C[C@H]1C(=O)NCC(=O)N1CCC[C@H]1C(=O)N1C[C@H](O)C[C@H]1C(=O)NCC(=O)N1CCC[C@H]1C(=O)N1C[C@H](O)C[C@H]1C(=O)NCC(N)=O [AchE-146B (t), PO-GAO-GRK-GRO-GVA-GPA-(GPO)4-G-NH2] (H-P[Hyp]GA[Hyp]GRKGR[Hyp]GVAGPAGP[Hyp]GP[Hyp]GP[Hyp]GP[Hyp]G-NH2) | 1.5 | 11.0 |
| CSCC[C@H](NC(=O)CNC(=O)[C@@H]1C[C@@H](O)CN1C(=O)[C@H](CC(C)C)NC(=O)CNC(=O)[C@@H]1C[C@@H](O)CN1C(=O)[C@@H]1CCCN1)C(=O)N[C@@H](CC(C)C)C(=O)NCC(=O)N[C@@H](CCC(N)=O)C(=O)N[C@@H](CCCCN)C(=O)NCC(=O)N[C@@H](CCC(=O)O)C(=O)N[C@@H](CCSC)C(=O)NCC(=O)N1CCC[C@H]1C(=O)N[C@@H](CCCCN)C(=O)NCC(=O)N1CCC[C@H]1C(=O)N1C[C@H](O)C[C@H]1C(=O)NCC(=O)N1CCC[C@H]1C(=O)N1C[C@H](O)C[C@H]1C(=O)NCC(=O)N1CCC[C@H]1C(=O)N1C[C@H](O)C[C@H]1C(=O)NCC(=O)N1CCC[C@H]1C(=O)N1C[C@H](O)C[C@H]1C(=O)NCC(N)=O [AchE-224 (t), PO-GLO-GML-GQK-GEM-GPK-(GPO)4-G-NH2] (H-P[Hyp]GL[Hyp]GMLGQKGEMGPKGP[Hyp]GP[Hyp]GP[Hyp]GP[Hyp]G-NH2) | −8.9 | 7.0 |
| CC[C@H](C)[C@H](NC(=O)[C@H](CC(=O)O)NC(=O)CNC(=O)[C@H](CCCCN)NC(=O)[C@H](CC(C)C)NC(=O)CNC(=O)[C@@H](NC(=O)[C@H](CCCCN)NC(=O)CNC(=O)[C@H](CCCNC(=N)N)NC(=O)[C@H](CCCCN)NC(=O)CNC(=O)[C@@H]1C[C@@H](O)CN1C(=O)[C@H](CCCNC(=N)N)NC(=O)CNC(=O)[C@@H]1C[C@@H](O)CN1C(=O)[C@@H]1CCCN1)[C@@H](C)O)C(=O)NCC(=O)N1CCC[C@H]1C(=O)N1C[C@H](O)C[C@H]1C(=O)NCC(=O)N1CCC[C@H]1C(=O)N1C[C@H](O)C[C@H]1C(=O)NCC(=O)N1CCC[C@H]1C(=O)N1C[C@H](O)C[C@H]1C(=O)NCC(=O)N1CCC[C@H]1C(=O)N1C[C@H](O)C[C@H]1C(=O)NCC(N)=O [AchE-251 (t), PO-GRO-GKR-GKT-GLK-GDI-(GPO)4-G-NH2] (H-P[Hyp]GR[Hyp]GKRGKTGLKGDIGP[Hyp]GP[Hyp]GP[Hyp]GP[Hyp]G-NH2) | −11.1 | 9.8 |
